We go through 21 compounds from the supplement of paper PMC10986608.

The other results are listed elsewhere or left out. Most values come without repeats; read them as rough.

The assay relates to Candida albicans DPL-15. Put plainly: growth (OD600) after compound treatment (apparently relative to screen median) (relative growth (fraction; screen median 1.02)); DPL-15 is a caspofungin-resistant clinical isolate; higher = more fungal growth (less antifungal activity). The settings on record: 25 µM; RPMI 1640; 48 h; 30 °C.
In the case of `COC(=O)c1[nH]c2ccccc2c1[C@]12CCN(C(=O)C3CCCO3)[C@H]1Nc1ccccc12` (stereo partly specified), the growth stood at 0.917. To `C=C(C)[C@@H]1CC2=C(OC)C(CC=C(C)C)(CC=C(C)C)C(=O)C(C(=O)c3ccccc3)=C2O1` belongs 1.28.

For the compound `COc1ccc(-c2ccc3c(n2)CCCN3S(=O)(=O)c2ccccc2C)cc1`, the growth stood at 0.914. To `CCCC[C@H]1Cc2ccc(F)cc2[C@H]2[C@H]3C(=O)N(c4ccc(OC)cc4)C(=O)[C@H]3[C@H](C(=O)OC)N12` belongs 0.8. To `CN1C(=O)[C@@]2(O[C@H]3C=CC=CN3C3=C2C(=O)CCC3)c2cc([N+](=O)[O-])ccc21` belongs 1.02.

For `Cc1ccc(S(=O)(=O)n2cccc2[C@H]2[C@@H](C)C[C@H]3CC(=O)N[C@@H](Cc4c[nH]c5ccccc45)C(=O)N32)cc1`, the growth was determined as 1.12.

On to `COC(=O)c1c(-c2ccc(OC)c(OC)c2)oc(-c2ccc3c(c2)OCO3)c1C(=O)OC`, for which the growth stood at 1.21. To `COC(=O)c1nnc(C(=O)OC)c2c1[nH]c1ccc(C#N)cc12` belongs 1.2; to `COc1ccc(CC2(c3ccccc3)Oc3ccccc3-c3nc4ccccc4nc32)cc1` (stereo unspecified), 1.07; to `C[C@@H]1c2c([nH]c(-c3ccccc3)c2C(=O)NCCc2c[nH]c3ccccc23)C(=O)C[C@H]1c1ccccc1`, 0.889.

As for `CN(C)S(=O)(=O)Nc1ccc(C(F)(F)F)cc1`, the growth was determined as 0.999.

With `CC(C)c1nn(-c2ccc(F)cc2)c2c1C(c1ccc(F)cc1)NC2=O` (stereo unspecified), the growth came to 1.04. Take `CO[C@@H]1[C@H](O)CC[C@]2(O)CN(c3ccc(C(C)=O)cc3)[C@@H](CC=C(C)C)[C@](C)(O)[C@@H]12`: the growth worked out at 1.1. In the case of `COC[C@@H](O)[C@H]1OCc2c(c3cc(F)ccc3n2S(C)(=O)=O)[C@@H]1/C=C/c1ccccc1`, the growth came out at 0.951. Take `Cc1cc(Nc2cc(O)cc(O)c2C(=O)N2CC[C@@H](N(C)C)C2)n(C)n1`: the growth was 1.08.

For the compound `CC1=C(C(=O)OC(C)C)[C@@H](c2ccccc2)c2cc(C)ccc2O1`, the growth turned out to be 1.08. To `COc1ccc([C@H]2c3cc(OC)c(OC)cc3O[C@H]3c4ccccc4C[C@@H]23)cc1` belongs 0.93. Turning to `COC(=O)[C@@]12Oc3cccc(O)c3C(=O)[C@@]1(Cl)C(=O)CC[C@H]2O`, the growth came out at 1.35.

On to `CC#CCN1C(=O)NC(c2ccccc2)C(C(=O)NCc2ccccc2)=C1C` (stereo unspecified), for which the growth came out at 1.11. To `COC(=O)C1=C(C)N(CC(C)C)C(=S)NC1c1ccc(OC)cc1` (stereo unspecified) belongs 0.957. To `CN1CCN=C(c2ccccc2)C2=C1C(=O)N(Cc1ccccc1)C2c1ccc(Br)cc1` (stereo unspecified) belongs 0.933.
